# The other results are listed elsewhere or left out. Values were computed here from the reads of four pooled replicates and scatter widely.
# Target: T1, Pho4 (S. cerevisiae) (UniProt P07270)
# T1 sequence: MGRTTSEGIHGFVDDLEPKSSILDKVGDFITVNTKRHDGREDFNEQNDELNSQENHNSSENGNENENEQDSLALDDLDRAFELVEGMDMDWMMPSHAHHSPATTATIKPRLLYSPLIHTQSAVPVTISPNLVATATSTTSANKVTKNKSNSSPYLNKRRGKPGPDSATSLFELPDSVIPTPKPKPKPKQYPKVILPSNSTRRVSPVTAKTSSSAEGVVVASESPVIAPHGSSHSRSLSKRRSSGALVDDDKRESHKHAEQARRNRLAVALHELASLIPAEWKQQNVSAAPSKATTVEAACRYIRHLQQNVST
# Experiment: relative binding free energy (BET-seq); higher = weaker binding
# Conditions: reference: library average
row,Sequence,relative binding free energy [kcal/mol]
1,GTGTGCACGTGTGTGA,0.09
2,CGGTGCACGTGAGGAT,0.32
3,GTGTGCACGTGCACGT,-0.12
4,GGCGACACGTGTAGGT,0.06
5,ATGTGCACGTGAGGCT,0
6,ATTGTCACGTGGCTAT,-0.01
7,TGCGCCACGTGGTGTT,-0.25
8,ATAGGCACGTGTGCGG,-0.2
9,TTATCCACGTGTATAT,0.06
10,TCGCTCACGTGGGGTT,0.14
11,AGATTCACGTGGGTCG,0.1
12,TGAAACACGTGTGGGC,-0.01
13,GGGGGCACGTGGGCGA,-0.18
14,TGGGTCACGTGGATTG,0.2
15,AATGACACGTGATTTT,0.11
16,AAGGGCACGTGAAGGC,0.06
17,CTTGTCACGTGGGCGA,0
18,GGAGGCACGTGGCTTA,-0.04
19,TGAGACACGTGAGGGC,0.32
20,GTCGGCACGTGCGAGG,0.02
21,GTAAGCACGTGGTAGG,-0.07
22,AGGTACACGTGTCAGT,0
23,AGGGTCACGTGTAGGC,0.03
24,GCGTTCACGTGTTTTA,0.34
25,TTACTCACGTGTTAGA,0.22

row,Sequence,relative binding free energy [kcal/mol]
1,TGGATCACGTGTGGAC,0.33
2,CGATGCACGTGTTGTG,-0.09
3,GGGGTCACGTGTCGAA,0.19
4,GGCGGCACGTGTTGGT,0.1
5,CTGTGCACGTGAGTTG,0.07
6,TGGGACACGTGTCGTG,0.04
7,GTGGTCACGTGGTCCT,0.13
8,CTATCCACGTGTTTGG,0.14
9,CGGATCACGTGAAGGT,0.2
10,AGTGACACGTGGTGGA,-0.05
11,TTTGGCACGTGTACAG,-0.2
12,CTGGGCACGTGGTGCA,-0.2
13,ACGGTCACGTGTGGCG,0.17
14,GAAGACACGTGTTGGT,0.18
15,GATTGCACGTGTAGTT,0.2
16,TGACACACGTGTAATG,0.19
17,GTTTACACGTGTACGG,0.23
18,GTTTTCACGTGCTAGT,0.32
19,TATGGCACGTGAATTA,0.24
20,CTACGCACGTGTTTGT,-0.09
21,TGGTGCACGTGGATAA,0.02
22,GTTCTCACGTGTTTGA,0.06
23,GGTTTCACGTGGCCTT,0.19
24,ATGGGCACGTGTAGCA,-0.12
25,GTTGGCACGTGCAAAG,-0.11

row,Sequence,relative binding free energy [kcal/mol]
1,GTGAGCACGTGTGCGG,-0.09
2,TTTTCCACGTGATGTA,0.24
3,GGTGTCACGTGTGTTG,0.15
4,ATCGTCACGTGCGTTT,0.16
5,TGGTTCACGTGTCGTC,0.2
6,GGGGCCACGTGGGTCG,-0.08
7,TGTGGCACGTGCGCTG,-0.2
8,AGGGGCACGTGTGCTT,-0.14
9,GGGGGCACGTGAGTCG,0.13
10,TGTGGCACGTGATCTG,-0.02
11,GGTGACACGTGGGGAT,-0.11
12,ATTGTCACGTGGTGGT,0.06
13,GTTGGCACGTGCAGTT,0.01
14,AATAGCACGTGTCATG,-0.1
15,ACAAGCACGTGGTTTG,-0.07
16,GTGGACACGTGAATGG,0.31
17,ACTTGCACGTGAGGTA,0.1
18,GGATACACGTGTTTAA,0.11
19,ACTGTCACGTGATGTT,0.08
20,TGTTTCACGTGCAGGC,0.13
21,AATGTCACGTGGTCTT,0.11
22,TTGTTCACGTGTAGAT,0.39
23,ATGGACACGTGGGTGC,-0.18
24,AGTGGCACGTGGGACT,-0.14
25,GGGTTCACGTGTAGCT,0.27

row,Sequence,relative binding free energy [kcal/mol]
1,ACAGGCACGTGGTGGG,-0.16
2,TTTTGCACGTGCACTT,-0.14
3,GGGCACACGTGTTATG,0.13
4,CGTAGCACGTGAGTAA,0.21
5,TCTGTCACGTGTTTAT,0.14
6,TGTTTCACGTGCATAT,0.36
7,TAGTTCACGTGAGCAG,0.44
8,GGCGTCACGTGTCGGG,0.24
9,GCAGACACGTGGGGGT,-0.17
10,CGTGTCACGTGGGAAT,0.02
11,GGGATCACGTGTTGGT,0.09
12,TTACGCACGTGGGTGG,-0.28
13,AATGTCACGTGGCTTA,0.1
14,AGGACCACGTGTTGTG,-0.12
15,ATGTACACGTGGGCAT,-0.07
16,GGGGCCACGTGGAAAG,0.09
17,CTGGTCACGTGCTGGC,0.17
18,TGAGGCACGTGGCTTA,-0.12
19,TCTTTCACGTGGCTTT,0.19
20,TTTGTCACGTGTTATT,0.11
21,TTTTACACGTGATAGT,0.14
22,TTGGTCACGTGTGGGA,0.13
23,ACAGACACGTGTTGGT,0.09
24,TATTGCACGTGGGCGC,-0.07
25,TGGGGCACGTGATAGA,-0.08

row,Sequence,relative binding free energy [kcal/mol]
1,TGGATCACGTGTTACG,0.26
2,AATGGCACGTGTTTTG,-0.08
3,AAGGGCACGTGTCAGG,-0.21
4,TTTAACACGTGGGAAT,0
5,AATGTCACGTGTGATG,0.09
6,CGTGTCACGTGCGTAT,-0.02
7,TGGCTCACGTGGGCGG,0.1
8,TCTGTCACGTGCTTGG,0
9,AGGTCCACGTGGAGGC,0
10,GGTTTCACGTGGCATA,0.3
11,ATTATCACGTGGAAGG,0.11
12,TGTCGCACGTGAGATG,0.1
13,TTTTTCACGTGCTCTG,0.13
14,TCTTGCACGTGGAAGG,0.12
15,CGGACCACGTGGGGTG,-0.21
16,TTCGGCACGTGAAGTA,0.12
17,AGGATCACGTGTGAAG,0.22
18,GTTAGCACGTGAGTGT,0.22
19,AAGGTCACGTGTGAGA,0.23
20,GCAGTCACGTGGATGT,0.13
21,GAGTTCACGTGTAAGG,0.31
22,AGTCACACGTGAGGGA,0.28
23,TGTAGCACGTGGGGTA,-0.26
24,TGACACACGTGAGGTT,0.42
25,TGCTACACGTGATGTT,0.15

row,Sequence,relative binding free energy [kcal/mol]
1,AGATTCACGTGTAGGA,0.2
2,GATAGCACGTGAAGTG,0.3
3,AATCTCACGTGTGTGT,0.37
4,TTGCGCACGTGTTAAT,-0.05
5,TAGTACACGTGCGGGA,-0.03
6,TGAGGCACGTGTAGTT,0.06
7,GGGCTCACGTGTCGTT,0.33
8,CTTGGCACGTGGGAGC,-0.1
9,AGGAGCACGTGTGGCA,-0.13
10,CGGATCACGTGTTTGG,0.21
11,TGTGACACGTGGGCCT,-0.15
12,GATTGCACGTGCAAGG,0.22
13,TCGTTCACGTGTTTGA,0.32
14,TGATGCACGTGGACTT,0.15
15,TATTGCACGTGCTGGC,0.01
16,TGGGACACGTGAGACA,0.35
17,GTATGCACGTGAAGTA,0.18
18,ATGTGCACGTGTTAAA,-0.13
19,TTTGACACGTGTGGAC,0.05
20,ATTTTCACGTGAGGTC,0.35
21,GGTACCACGTGTAGGA,0.06

# — the BET-seq Pho4 binding data (Le et al. 2018)
